Measured values: PubChem BioAssay AID938 (National Center for Advancing Translational Sciences (NCATS), 2007)
Among all 73,000 compounds or so, about 1,800 (2.5%) were called active. The inconclusive results got no clear call from the source; some entries with a clear call stand among them for comparison. Calls come from the whole dose curve; as a rule, active = well fitted activation curve with a large enough effect; inconclusive = small, poorly fitted or top-dose-only effect; inactive = no such curve, though single readings can be large or run the other way. No potency is given beside an inconclusive call; the fits are too rough.

test: qHTS Assay for Agonists of the Thyroid Stimulating Hormone Receptor: Activators of Intracellular cAMP Concentrations in Parental HEK 293; settings: parental HEK293 CNG cAMP sensor, membrane potential fluorescence; activation: at 57.1 µM (top of the series) unless noted; note: nearly all actives have a fitted effect of over 55% in size; for activation: % of control where 0% means no effect
Procedure, shortened: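 Parental HEK 293 cells stably expressing a cAMP-gated CNG channel were loaded with membrane potential dye containing 100 uM RO 20-1724 for 60 min. Compound added for 30 min; depolarization read as fluorescence intensity at 590 nm.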
Potency is the fitted concentration of half-maximal effect; tags give direction and shape of the fitted curve.

Question: Which “activation” value does the source give for `O=C(CN1CCCN(Cc2ccc(F)cc2Cl)C1=O)NCc1ccccc1` here?
Answer: Its value is inactive: 8.88%.

Question: Which Potency does the source give for `Cc1ccccc1Nc1nc(N)nc(CN2CCN(c3ccccn3)CC2)n1` here?
Answer: The Potency was inconclusive [activator, partial curve].

Question: For `O=C(NCc1ccc2c(c1)OCO2)C1CCN(Cc2cnn(-c3ccccc3)c2-n2cccc2)CC1`, which Potency is on record?
Answer: The Potency was inconclusive [activator, partial curve].

Question: Which Potency does the source give for `Cn1c(/C(C#N)=C(\O)COc2ccc3ccccc3c2)nc2ccccc21` here?
Answer: The Potency was active: 15.8 µM.

Question: Which Potency does the source give for `c1ccc(-c2nnc3sc(-c4cc5ccccc5o4)nn23)cc1` here?
Answer: Its Potency is inconclusive [activator, single point].

Question: For `CCn1nc(C(=O)OCC(=O)c2ccc3c(c2)OCCO3)c2ccccc2c1=O`, which Potency is on record?
Answer: Its Potency is inconclusive [activator, single point].

Question: With `CCOC(=O)N1CCC(n2c(SCC(=O)NCCC3=CCCCC3)nc3ccccc3c2=O)CC1` as the compound, how does the Potency read?
Answer: Its Potency is active: 6.31 µM.

Question: With `COc1ccc(-c2nnc(COc3ccc4ccccc4c3)o2)cc1OC` as the compound, how does the Potency read?
Answer: The Potency was active: 3.98 µM.

Question: For `COc1ccc2oc(C(=O)c3ccccc3)c(NC(=O)CN3CCN(C)CC3)c2c1`, which Potency is on record?
Answer: The Potency was inconclusive [activator, single point].

Question: With `CCOC(=O)c1ccccc1NC(=O)COC(=O)C1=COCCO1` as the compound, how does the Potency read?
Answer: The Potency was inconclusive [activator, single point].

Question: For `c1cncc(-c2nc(NCc3ccco3)c3ccccc3n2)c1`, which Potency is on record?
Answer: Its Potency is active: 25.1 µM.

Question: With `Cn1c(C(=O)NCCCN2CCCCC2)cc2sccc21` as the compound, how does the Potency read?
Answer: Its Potency is inconclusive [activator, single point].

Question: For `O=C(O)CC[P+](c1ccccc1)(c1ccccc1)c1ccccc1`, which Potency is on record?
Answer: The Potency was active: 3.16 µM.

Question: Which Potency does the source give for `NCCc1cnc[nH]1` here?
Answer: Its Potency is inconclusive [activator, single point].

Question: Which Potency does the source give for `CN1CCN(C(=O)c2cc(Cl)ccc2Cl)CC1` here?
Answer: The Potency was active: 31.6 µM.

Question: With `CCOC(=O)c1c(C)nc(-c2ccccc2)nc1NC(=O)CC` as the compound, how does the Potency read?
Answer: The Potency was inconclusive [activator, single point].

Question: With `CCOC(=O)COc1ccc(S(=O)(=O)N2CCN(c3ccccc3F)CC2)cc1` as the compound, how does the Potency read?
Answer: The Potency was inconclusive [activator, single point].

Question: For `COc1ccc(OC)c(S(=O)(=O)N2CCCc3ccccc32)c1`, which Potency is on record?
Answer: Its Potency is inconclusive [activator, partial curve].

Question: With `CCc1cc2cc3c(cc2nc1SCC(=O)N1CCN(C(=O)c2ccco2)CC1)OCO3` as the compound, how does the Potency read?
Answer: Its Potency is inconclusive [activator, single point].

Question: With `Cc1ccc(C(C)C)c(OCC(=O)Nc2ccccc2N2CCN(C)CC2)c1` as the compound, how does the “activation” value read?
Answer: The value was inactive: 25.3%.

Question: For `CCOC(=O)C1CCN(C2CC(=O)N(c3ccc(OCC)cc3)C2=O)CC1` (configuration not stated), which “activation” value is on record?
Answer: The value was inactive: 12.8%.

Question: With `CCC(c1nnnn1Cc1ccc2c(c1)OCO2)N1CCN(c2ccccc2)CC1` (configuration not stated) as the compound, how does the Potency read?
Answer: The Potency was active: 15.8 µM.

Question: With `Cc1ccc(S(=O)(=O)N[C@H]2COC(=O)[C@H](C)COC(=O)C/C=C\[C@H]2C)cc1` as the compound, how does the activation read?
Answer: Its activation is inactive: -6.28% [at 11.4 µM].

Question: Which Potency does the source give for `COc1ccc(-c2nnc(SCc3cc(C)cc(C)c3)o2)cc1` here?
Answer: The Potency was inconclusive [activator, partial curve].

Question: With `CN(Cc1nc2ccccc2c(=O)[nH]1)CC(O)COCc1ccco1` (configuration not stated) as the compound, how does the Potency read?
Answer: The Potency was inconclusive [activator, single point].

Question: With `CCOC(=O)c1cc(-c2ccc(C)cc2)n(CC(=O)NCc2ccco2)c1C` as the compound, how does the Potency read?
Answer: The Potency was inconclusive [activator, partial curve].

Question: For `COc1cc(-c2nnn(CC#N)n2)ccc1OCc1ccccc1`, which Potency is on record?
Answer: The Potency was inconclusive [activator, partial curve].

Question: With `CCCCNC(=O)CSc1nc2ccccc2c(=O)n1C1CCCC1` as the compound, how does the Potency read?
Answer: The Potency was inconclusive [activator, partial curve].

Question: Which Potency does the source give for `COc1cc2c(cc1OC)C(C(=O)Nc1ccc3c(c1)OCCO3)C1c3ccccc3CCN1C2=O` (configuration not stated) here?
Answer: Its Potency is inconclusive [activator, single point].

Question: Which “activation” value does the source give for `N#CCCn1c2ccccc2c2nc3ccccc3nc21` here?
Answer: The value was inactive: 23.1%.

Question: For `COc1ccccc1CNc1ccnc(-c2ccccc2CN(C)C)n1`, which Potency is on record?
Answer: Its Potency is inconclusive [activator, partial curve].

Question: With `CCOc1ccccc1Cn1c(=O)oc2ccc(C)cc21` as the compound, how does the Potency read?
Answer: Its Potency is active: 25.1 µM.

Question: Which Potency does the source give for `Cc1ccc(N(CC(=O)Nc2ccc(F)cc2)S(=O)(=O)N2CCCC2)cc1` here?
Answer: The Potency was inconclusive [activator, single point].

Question: Which Potency does the source give for `O=C(CNS(=O)(=O)c1ccc(Br)s1)N1CCCC1` here?
Answer: Its Potency is inconclusive [activator, single point].

Question: Which Potency does the source give for `c1ccc(CNc2ccnc(-c3ccc4c(c3)OCO4)n2)cc1` here?
Answer: Its Potency is inconclusive [activator, single point].

Question: With `Oc1ccc(-c2nc(-c3ccc(O)c(O)c3)cs2)cc1` as the compound, how does the “activation” value read?
Answer: The value was inactive: -35.1%.

Question: With `CCNc1nc(NCC)nc(Oc2ccc(OCC)nn2)n1` as the compound, how does the activation read?
Answer: Its activation is inactive: 6.88% [at 11.4 µM].

Question: For `COc1ccc(-c2noc(CCC(=O)NCCN3CCN(c4ccccc4F)CC3)n2)cc1`, which Potency is on record?
Answer: The Potency was inconclusive [activator, partial curve].

Question: Which Potency does the source give for `COC(=O)C1=C(N)OC2=C(C(=O)CC(C)(C)C2)C1c1ccoc1` (configuration not stated) here?
Answer: The Potency was inconclusive [activator, partial curve].

Question: For `CN[C@H](CC(=O)O)C(=O)O`, which Potency is on record?
Answer: Its Potency is “inactive”.

Question: For `COc1ccc(-n2c(CNC(=O)c3ccc(S(=O)(=O)N4CCCC4)cc3)n[nH]c2=S)cc1`, which Potency is on record?
Answer: Its Potency is inconclusive [activator, single point].

Question: Which Potency does the source give for `CCCN(CCC)S(=O)(=O)c1cccc(C(=O)Nc2ccc3c(c2)OCO3)c1` here?
Answer: Its Potency is active: 15.8 µM.

Question: With `Cc1cc(C)n2nc(C(=O)Nc3ccccc3N3CCOCC3)nc2n1` as the compound, how does the “activation” value read?
Answer: The value was inactive: -1.14%.

Question: Which Potency does the source give for `CN1CCN(c2oc(-c3cccs3)nc2S(=O)(=O)c2ccccc2)CC1` here?
Answer: The Potency was inconclusive [activator, partial curve].

Question: For `CCOc1ccc2nc(C(C)O)[nH]c2c1` (configuration not stated), which “activation” value is on record?
Answer: The value was inactive: 0.616%.

Question: Which Potency does the source give for `COc1ccc(-c2nnn(CC(=O)N(CCO)C(C(=O)NC3CCCC3)c3ccc(F)cc3)n2)cc1` (configuration not stated) here?
Answer: Its Potency is inconclusive [activator, single point].

Question: Which “activation” value does the source give for `CN(Cc1ccco1)c1ccnc(-c2ccoc2)n1` here?
Answer: The value was inactive: -12%.
